Where a name gives a salt, the structure may show the parent alone. The list shows a part of the results. Most values come without repeats; read them as rough.

Among the test systems are HCC-1143; HCC-1187; MDA-468; SUM-149.
Assay in all cases: cell viability relative to vehicle (% of vehicle); basal-like triple-negative breast cancer lines; higher = less cytotoxic
Settings in all cases: 10 µM; 72 h
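Also: stably firefly luciferase-GFP labeled cells in 96-well plates, viability read as luciferase photon flux after d-luciferin addition, treated wells normalized to vehicle wells, single-dose high-throughput screen.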

For `CN1CCN(c2cc3c(cc2F)c(=O)c(C(=O)O)cn3-c2ccc(F)cc2)CC1` [Difloxacin HCl], the cell viability in the assay with HCC-1143 amounted to 77.7; with HCC-1187 it was 75.1; with MDA-468, 79.5; in the assay on SUM-149 it was 120.

As for `O=C(C=Cc1ccc(O)c(O)c1)OC1CC(O)(C(=O)O)CC(O)C1O` (centres undefined) [Chlorogenic acid], the cell viability amounted to 87.6 with HCC-1143, 78.3 in the assay with HCC-1187, 111 in the assay on MDA-468 and 99.7 in the assay on SUM-149.

As to `C[N+]1(C)C2CCC1CC(OC(=O)C(O)c1ccccc1)C2.[Br-]` (centres undefined) [Homatropine Methylbromide], the cell viability with HCC-1143 stood at 74.2; in the assay on HCC-1187, 79.6; with MDA-468, 112; in the assay on SUM-149, 97.

For the molecule `Cc1cccn2c(=O)c(-c3nnn[n-]3)cnc12.[K+]` [Pemirolast potassium], the cell viability in the assay with HCC-1143 stood at 102; in the assay with HCC-1187, 101; in the assay on MDA-468, 103; in the assay on SUM-149 it was 112.

For `CC(C)NCC(O)c1ccc(NS(C)(=O)=O)cc1.Cl` (centres undefined) [Sotalol], the cell viability in the assay with HCC-1143 is 79.2; in the assay with HCC-1187, 102; with MDA-468 it was 98.1; in the assay on SUM-149, 130.

For `CCC(CO)NCCNC(CC)CO.Cl.Cl` (centres undefined) [Ethambutol HCl], the cell viability with HCC-1143 was 83.7; with HCC-1187 it was 75.5; with MDA-468, 105; in the assay on SUM-149, 103.

`Cc1c(-c2cnccn2)ssc1=S` [Oltipraz]: the cell viability in the assay with HCC-1143 is 72; in the assay with HCC-1187, 76.7; with MDA-468 it was 102; in the assay with SUM-149, 79.4.

`CC(=O)SC1CC2=CC(=O)CCC2(C)C2CCC3(C)C(CCC34CCC(=O)O4)C12` (centres undefined) [Spironolactone]: the cell viability stood at 74.1 with HCC-1143, 83.2 in the assay with HCC-1187, 112 with MDA-468 and 84 with SUM-149.

On to `O=C(O)CCC(=O)O.O=C(OC1CN2CCC1CC2)N1CCc2ccccc2C1c1ccccc1` (centres undefined) [Solifenacin succinate], for which the cell viability was 77.4 in the assay with HCC-1143, 72.6 in the assay on HCC-1187, 98.2 with MDA-468 and 129 with SUM-149.

For `CC(C)c1c(C(=O)Nc2ccccc2)c(-c2ccccc2)c(-c2ccc(F)cc2)n1CCC(O)CC(O)CC(=O)[O-].CC(C)c1c(C(=O)Nc2ccccc2)c(-c2ccccc2)c(-c2ccc(F)cc2)n1CCC(O)CC(O)CC(=O)[O-].[Ca+2]` (centres undefined) [Atorvastatin Calcium], the cell viability in the assay with HCC-1143 was 79.6; in the assay with HCC-1187, 41.5; in the assay with MDA-468, 32.7; in the assay on SUM-149 it was 71.6.

On to `CC(OC1OCCN(Cc2nc(=O)n(P(=O)(O)O)[nH]2)C1c1ccc(F)cc1)c1cc(C(F)(F)F)cc(C(F)(F)F)c1.CNCC(O)C(O)C(O)C(O)CO.CNCC(O)C(O)C(O)C(O)CO` (centres undefined) [Fosaprepitant dimeglumine salt], for which the cell viability was 92.2 in the assay with HCC-1143, 49.4 with HCC-1187, 109 with MDA-468 and 138 in the assay on SUM-149.

With `O=c1oc2c(O)c(O)cc3c(=O)oc4c(O)c(O)cc1c4c23` [Ellagic acid], the cell viability was determined as 92.4 with HCC-1143, 112 in the assay with HCC-1187, 91.7 in the assay on MDA-468 and 112 in the assay with SUM-149.

Turning to `CCCC(=O)OC1(C(=O)COC(C)=O)CCC2C3CC(F)C4=CC(=O)C=CC4(C)C3(F)C(O)CC21C` (centres undefined) [Difluprednate], the cell viability turned out to be 101 with HCC-1143, 108 with HCC-1187, 176 in the assay on MDA-468 and 199 with SUM-149.

For the molecule `CCc1ccc(CCOc2ccc(CC3SC(=O)NC3=O)cc2)nc1.Cl` (centres undefined) [Pioglitazone HCl], the cell viability in the assay on HCC-1143 is 91.9; with HCC-1187 it was 81; with MDA-468, 92.2; in the assay with SUM-149, 146.

`CN(CCOc1ccc(NS(C)(=O)=O)cc1)CCc1ccc(NS(C)(=O)=O)cc1` [Dofetilide]: the cell viability was 79.8 with HCC-1143, 93.4 in the assay on HCC-1187, 104 in the assay on MDA-468 and 106 in the assay with SUM-149.

`COC(=O)C1=C(C#N)NC(C)=C(C(=O)OC(C)C)C1c1cccc([N+](=O)[O-])c1` (centres undefined) [Nilvadipine]: the cell viability stood at 112 with HCC-1143, 96.7 in the assay with HCC-1187, 110 in the assay with MDA-468 and 93.6 in the assay with SUM-149.

As to `CCOC(=O)c1ccc(C#Cc2ccc3c(c2)C(C)(C)CCS3)nc1` [Tazarotene], the cell viability worked out at 84 in the assay on HCC-1143, 117 in the assay on HCC-1187, 113 in the assay with MDA-468 and 107 with SUM-149.

Take `CC(C)=CCCC(C)=CCCC(C)=CCSc1ccccc1C(=O)O` [Salirasib]: the cell viability was 49.2 in the assay with HCC-1143, 51.9 in the assay with HCC-1187, 78.3 in the assay with MDA-468 and 155 with SUM-149.

For `OCC1OC(Oc2cc(O)cc(C=Cc3ccc(O)cc3)c2)C(O)C(O)C1O` (centres undefined) [Polydatin], the cell viability was 171 in the assay with HCC-1143, 65.4 in the assay on HCC-1187, 156 in the assay on MDA-468 and 145 in the assay on SUM-149.

In the case of `COCCc1ccc(OCC(O)CNC(C)C)cc1.COCCc1ccc(OCC(O)CNC(C)C)cc1.O=C(O)C(O)C(O)C(=O)O` (centres undefined) [Metoprolol Tartrate], the cell viability with HCC-1143 was 79.3; in the assay on HCC-1187, 97.2; with MDA-468, 93.4; in the assay with SUM-149, 95.6.

Take `Cl.O=S(=O)(c1cccc2cnccc12)N1CCCNCC1` [Fasudil (HA-1077) HCl]: the cell viability was 89.3 in the assay on HCC-1143, 101 in the assay on HCC-1187, 86.4 in the assay with MDA-468 and 105 with SUM-149.

Take `Cl.NC(N)=NC(=O)c1nc(Cl)c(N)nc1N.O.O` [Amiloride HCl dihydrate]: the cell viability with HCC-1143 is 66; in the assay with HCC-1187 it was 71.2; in the assay with MDA-468 it was 97.4; in the assay on SUM-149, 128.

Regarding `COCCCCC(=NOCCN)c1ccc(C(F)(F)F)cc1.O=C(O)C=CC(=O)O` [Fluvoxamine maleate], the cell viability worked out at 107 in the assay with HCC-1143, 98.5 with HCC-1187, 96.9 in the assay with MDA-468 and 83.4 with SUM-149.

Consider `CC(C)NCC(O)c1ccc(NS(C)(=O)=O)cc1.Cl` (centres undefined) [Sotalol hydrochloride], for which the cell viability in the assay with HCC-1143 amounted to 112; in the assay on HCC-1187, 110; with MDA-468, 110; in the assay with SUM-149 it was 133.

Regarding `O=C(CCc1ccc(O)cc1)c1c(O)cc(O)cc1OC1OC(CO)C(O)C(O)C1O` (centres undefined) [Phloridzin], the cell viability stood at 108 in the assay on HCC-1143, 99.2 in the assay on HCC-1187, 126 with MDA-468 and 102 with SUM-149.

For the molecule `C[C@H]1COc2c(N3CCN(C)CC3)c(F)cc3c(=O)c(C(=O)O)cn1c23` [Levofloxacin], the cell viability with HCC-1143 came out at 82.2; in the assay on HCC-1187, 103; with MDA-468, 88.4; in the assay on SUM-149 it was 96.7.

(Values after the supplement of paper PMC8512760.)
